Test results reported in the CheMixHub viscosity set.
Further values from the same series stand in other lists.

Assay: xn = mol fraction of the nth substance listed
Details: 101 kPa

CCC(O)CO (centres undefined) + O
viscosity [mPa·s]
Details	308.15 K	313.15 K	318.15 K	323.15 K
x1 = 0.005	–	0.689	0.632	0.572
x1 = 0.01	–	0.732	0.669	0.6
x1 = 0.015	0.874	0.78	0.714	0.644
x1 = 0.02	0.929	0.844	0.761	0.686
